According to PubChem BioAssay AID504466 (National Center for Advancing Translational Sciences (NCATS), 2011):
Out of some 330,000 compounds screened, about 4,200 (1.3%) were called active. The shares of active, inactive and inconclusive entries below differ from those in the screen. Calls come from the whole dose curve; as a rule, active = well fitted activation curve with a large enough effect; inconclusive = small, poorly fitted or top-dose-only effect; inactive = no such curve, though single readings can be large or run the other way. A potency beside an inconclusive call is a rough fit, not a confirmed value.

Assay: qHTS screen for small molecules that induce genotoxicity in human embryonic kidney (HEK293T) cells expressing luciferase-tagged ELG1; note: nearly all actives have a fitted effect of over 60% in size; for activity change, positive = activation: % of control where 0% means no effect
Settings: HEK293T ELG1-luciferase reporter, luminescence, 16 h; series mostly up to 46 µM; activity change, positive = activation: at the top concentration
How it was run: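 HEK293T cells expressing luciferase-tagged ELG1 were exposed to compound or DMSO vehicle for 16 hr at 37 °C and 5% CO2. Luciferase activity was then measured with ONE-Glo after 30 min at room temperature.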
Potency is the fitted concentration of half-maximal effect; tags give direction and shape of the fitted curve.

Row | SMILES | activity change, positive = activation | Potency
1 | COc1ccc(CCN(C)C(=O)c2cc(S(=O)(=O)NCc3ccccc3)ccc2C)cc1OC | inactive: -8.4% | 
2 | COc1ccc(CNC(=O)CN2C(=O)CSc3ccc(S(=O)(=O)N4CCOCC4)cc32)c(OC)c1 | inactive: 1.29% | 
3 | COc1cccc(NC(=O)c2cccs2)c1 |  | active: 16.4 µM
4 | Cc1ccc(C)c(NC(=O)C[n+]2ccccc2)c1 | inactive: 0.354% | 
5 | Cc1ccccc1C(=O)NC1CCCCCCC1 |  | active: 16.4 µM
6 | CC(C)c1ccccc1NC(=O)Cn1c(/C=C/c2ccccc2)nc2ccccc21 |  | inconclusive: 16.4 µM [activator, partial curve, poor fit]
7 | CCc1ccc2nc(NC(=O)C3CSC4(C)CCC(=O)N34)sc2c1 (centres undefined) |  | inconclusive: 18.3 µM [activator, partial curve]
8 | CCC(=O)N(CC)c1nc(-c2ccc(OC)cc2)cs1 | inactive: 7.31% | 
9 | Cc1ccc(NC(=O)Cn2nnc(C(=O)Nc3ccc(F)c(Cl)c3)c2N)cc1 |  | inconclusive: 29.1 µM [activator, partial curve, poor fit]
10 | COc1cccc2cc(C(=O)OCC(=O)NC3CCCC(C)C3C)c(=O)oc12 (centres undefined) |  | inconclusive: 20.6 µM [activator, partial curve, poor fit]
11 | CC(/C=C1\SC(=S)N(NC(=O)c2cccc(O)c2)C1=O)=C\c1ccccc1 | inactive: 0.326% | 
12 | COc1cc(Nc2ncnc(N)n2)cc(OC)c1OC |  | inconclusive: 16.4 µM [activator, partial curve, poor fit]
13 | Cc1ccc(N/N=C2\CC(=O)c3ccccc32)cc1Cl |  | inconclusive: 18.3 µM [activator, partial curve, poor fit]
14 | Cc1cc(Cl)ccc1OCCCC(=O)N1CCCCC1 |  | inconclusive: 20.6 µM [activator, single point]
15 | Oc1cnn(-c2ccccc2)c1 |  | inconclusive: 18.4 µM [activator, partial curve, poor fit]
16 | O=S(=O)(c1ccc(NC(=S)N/N=C/c2ccc(Oc3ccccc3)cc2)cc1)N1CCOCC1 |  | inconclusive: 20.6 µM [activator, single point]
17 | CCC(C)NC(=O)c1ccc(NS(=O)(=O)c2ccc3[nH]c(=O)[nH]c3c2)cc1 (centres undefined) |  | inconclusive: 25.9 µM [activator, single point]
18 | CCCCCCOC(=O)c1ccc(N)cc1 |  | inconclusive: 23.1 µM [activator, partial curve, poor fit]
19 | C/C(=N/OCC(=O)Nc1ccccc1)c1cccs1 |  | inconclusive: 20.6 µM [activator, partial curve, poor fit]
20 | Cc1ccc(C)c(OCC(=O)Nc2ccc3c(c2)OCO3)c1 |  | inconclusive: 20.6 µM [activator, partial curve]
21 | Cn1c(=O)[nH]c(=O)c2c1nc(N/N=C/c1ccncc1)n2Cc1ccc(Cl)cc1 |  | inconclusive: 10.3 µM [activator, partial curve]
22 | COc1cc(-c2nc3ccc(N4CCN(C)CC4)cc3[nH]2)cc(OC)c1OC |  | active: 7.3 µM
23 | Cc1ccc(NC(=O)Cn2nnc(C(=O)NCc3cccs3)c2N)c(C)c1 |  | inconclusive: 18.3 µM [activator, partial curve, poor fit]

Row | SMILES | activity change, positive = activation | Potency
24 | COc1cc2c(cc1OC)C(C)N(C(=O)c1sc(-c3cnccn3)nc1C)CC2 (centres undefined) | inactive: -1.26% | 
25 | Cc1cccc(CCNS(=O)(=O)c2ccc3c(c2)NC(=O)CS3)c1 | inactive: 0.894% | 
26 | O=C(O)c1ccc(NCCc2ccc(Cl)cc2)c([N+](=O)[O-])c1 | inactive: 0.505% | 
27 | Cc1cccc(C)c1Nc1nnc(SCC(=O)c2ccc3c(c2)NC(=O)CO3)s1 | inactive: -0.143% | 
28 | CC(=O)Nc1ccc(-c2cn3ccsc3n2)cc1 |  | active: 5.8 µM
29 | CSc1ccccc1NC(=O)C1CC(c2ccccc2O)=NO1 (centres undefined) |  | inconclusive: 25.9 µM [activator, partial curve, poor fit]
30 | COc1cccc(NC(=O)[C@@H]2CCCN2C(=O)[C@@H]2Cc3ccccc3CN2C(=O)OC(C)(C)C)c1 |  | inconclusive: 16.4 µM [activator, partial curve, poor fit]
31 | NS(=O)(=O)c1ccc(CNC(=O)CNC(=O)c2ccc(Br)o2)cc1 | inactive: 14.9% | 
32 | CC(=O)c1cccc(NC(=O)Nc2ccc3c(c2)N(C)C(=O)CS3)c1 | inactive: -31.3% | 
33 | O=C(Nc1ccccc1)Nc1ccc(C(=O)N2CCCC2)cc1 |  | inconclusive: 1.64 µM [activator, partial curve]
34 | Cc1cc2sc3nc(=O)n(-c4ccccc4)c(=O)n3c2cc1C |  | inconclusive: 13 µM [activator, partial curve]
35 | C/C(=N\NC(=O)c1ccn[nH]1)c1cn(C)nc1C |  | inconclusive: 18.4 µM [activator, partial curve]
36 | COc1ccc(CNC(=O)CSc2nnc(NC(=O)c3ccccc3F)s2)cc1 |  | inconclusive: 3.66 µM [activator, single point]
37 | CCOC(=O)Cn1c2ccc(OC)cc2c2nc3ccccc3nc21 |  | inconclusive: 29.1 µM [activator, single point]
38 | CC1(C)C(=O)CC[C@@]2(C)[C@H]1CC[C@@]1(C)CC3=C(CC[C@@H]12)[C@@]1(C)CCC(=O)C(C)(C)[C@@H]1CC3 |  | inconclusive: 23.1 µM [activator, partial curve]
39 | Clc1ccccc1N1CCN(Cc2ccco2)CC1 | inactive: 1.28% | 
40 | CC1CCCC(NC(=O)c2n[nH]c(=O)c3ccccc23)C1C (centres undefined) |  | inconclusive: 20.6 µM [activator, partial curve, poor fit]
41 | CCN(CC)C(=O)CSC(=Nc1ccccc1F)NC#N |  | inconclusive: 18.4 µM [activator, partial curve]
42 | COc1ccc(-c2noc(CNS(=O)(=O)c3ccccc3)n2)cc1 |  | inconclusive: 32.6 µM [activator, partial curve, poor fit]
43 | COc1ccc(-c2c(C)nn(-c3ccccc3)c2N)cc1 |  | inconclusive: 18.4 µM [activator, single point]
44 | O=c1nc(N/N=C/C=C/c2ccccc2)cn[nH]1 |  | active: 2.06 µM
45 | CC1CCN(C(=O)/C=C/c2ccc(C(C)(C)C)cc2)CC1 |  | inconclusive: 20.6 µM [activator, partial curve, poor fit]
46 | Cc1ccc(-n2c(C)nnc2SCC(=O)N(C)c2c(N)n(Cc3ccccc3)c(=O)[nH]c2=O)cc1 | inactive: -3.1% | 

Row | SMILES | activity change, positive = activation | Potency
47 | COc1ccc2sc(NCc3ccccc3)nc2c1 |  | inconclusive: 18.3 µM [activator, partial curve]
48 | Cc1ccc(NC(=O)N2CCC(c3ccccc3)C2)cc1C (centres undefined) |  | inconclusive: 2.59 µM [activator, full curve]
49 | C(=N\n1cnnc1)/c1ccc(OCc2ccccc2)cc1 |  | inconclusive: 25.9 µM [activator, single point]
50 | Fc1cccc(Cl)c1CSc1nnc(-c2ccncc2)o1 |  | inconclusive: 16.4 µM [activator, partial curve]
51 | CC(C)Cc1cc(C(=O)Nc2c(F)cc(F)cc2Br)no1 |  | inconclusive: 20.6 µM [activator, single point]
52 | C=CCNC(=O)CSc1nc2sccc2c(=O)n1-c1ccccc1 |  | inconclusive: 20.6 µM [activator, partial curve, poor fit]
53 | O=C(N/N=C/c1c(O)ccc2ccccc12)c1cccnc1 | inactive: 7.11% | 
54 | Cc1ccc(NC(=O)Nc2ccc3c(c2)OCO3)cc1F |  | active: 9.2 µM
55 | O=C(N=C1c2ccccc2CN1c1ccc(F)c(Cl)c1)c1cccnc1Cl |  | inconclusive: 18.4 µM [activator, partial curve, poor fit]
56 | Cc1c(/C=N/Nc2ccc(C(=O)O)cc2)c2ccccc2n1C |  | inconclusive: 18.3 µM [activator, partial curve]
57 | COc1ccc(C(=O)O/N=C(\N)c2ccccn2)cc1[N+](=O)[O-] |  | inconclusive: 14.6 µM [activator, partial curve]
58 | O=C(NCCc1ccccn1)c1ccc(OC2CCN(CCc3ccccc3)CC2)cc1 |  | inconclusive: 2.06 µM [activator, full curve]
59 | Cc1ccccc1NC(=O)c1ccc2c(c1)N(C)CCS2 |  | inconclusive: 18.3 µM [activator, partial curve, poor fit]
60 | Cc1ccc(OCCCSc2ncccn2)cc1C |  | inconclusive: 14.6 µM [activator, partial curve, poor fit]
61 | CCOC(=O)c1c(C)[nH]c(C(=O)CSc2nccc(C)n2)c1C |  | inconclusive: 2.91 µM [activator, full curve, poor fit]
62 | Cc1nn(Cc2c(Cl)cccc2Cl)c(Cl)c1/C=C/C(=O)OCC(=O)NCC(F)(F)F | inactive: 5.08% | 
63 | COc1ccc(NC(=O)CSc2ccccn2)c([N+](=O)[O-])c1 |  | inconclusive: 23.1 µM [activator, partial curve, poor fit]
64 | Cc1ccc(N2C(=O)C3C(C2=O)N2C(c4cccs4)C4C(=O)N(c5ccc(C)cc5)C(=O)C4N2C3c2cccs2)cc1 (centres undefined) | inactive: -0.585% | 
65 | CCOc1ccc(/C=C/C(=O)N(CC)CC(=O)Nc2ccc3c(c2)OCCO3)cc1OCC | inactive: 13.9% | 
66 | CCCCN(C)S(=O)(=O)c1ccc(C(=O)N=c2sc3cc(NC(C)=O)ccc3n2C)cc1 | inactive: -0.0345% | 
67 | O=C(Nc1cccc(Cl)c1)c1ccc(OC(=S)N2CCOCC2)cc1 |  | inconclusive: 29.1 µM [activator, single point]
68 | COc1ccc(/C=N/Nc2cc(C)nc(N3CCOCC3)n2)c(OC)c1 | inactive: 6.23% | 
69 | O=C(N/N=C/c1cc(Br)c(O)c(Br)c1O)c1ccc2c(c1)OCCO2 |  | inconclusive: 18.3 µM [activator, partial curve, poor fit]
